Assay results: the supplement of paper PMC4967469

Assays:
Assay in all cases: Viability of human cancer cell lines after 72 h of drug (GDSC screen)
AZ628 = compound: Cc1ccc(NC(=O)c2cccc(C(C)(C)C#N)c2)cc1Nc1ccc2ncn(C)c(=O)c2c1 [AZ628]; conditions: top dose 4 µM; top dose inferred
Protocol: (§1)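 Human cancer cell lines in 384-well plates, medium with 10% serum, drug for 72 h over a 256-fold dose range (nine 2-fold or five 4-fold steps up to the top dose). Adherent lines were fixed and stained with the nucleic acid dye Syto60, suspension lines read with resazurin; signal relative to control wells, capped at 0 and 100%. One two-parameter sigmoid per drug and line, fitted in a mixed model over all curves with the slope shared within a line.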

AZD6244 = compound: Cn1cnc2c(F)c(Nc3ccc(Br)cc3Cl)c(C(=O)NOCCO)cc21 [AZD6244]; conditions: top dose 4 µM; screen: GDSC drug entry 1498; top dose inferred
Protocol: as §1

AS601245 = compound: N#CC(c1ccnc(NCCc2cccnc2)n1)c1nc2ccccc2s1 [AS601245]; conditions: top dose 8 µM; top dose inferred
Protocol: as §1

EX-527 = compound: NC(=O)C1CCCc2c1[nH]c1ccc(Cl)cc21 [EX-527]; conditions: top dose 20 µM
Protocol: as §1

YM201636 = compound: Nc1ccc(C(=O)Nc2cccc(-c3nc(N4CCOCC4)c4oc5ncccc5c4n3)c2)cn1 [YM201636]; conditions: top dose 5.12 µM; top dose inferred
Protocol: as §1

Cell Line	AUC (AZ628)	IC50 (AZ628) [µM]	AUC (AZD6244)	IC50 (AZD6244) [µM]	AUC (AS601245)	IC50 (AS601245) [µM]	AUC (EX-527)	IC50 (EX-527) [µM]	AUC (YM201636)	IC50 (YM201636) [µM]
WIL2-NS (lymphoid neoplasm, suspension)	0.948	> 4	0.982	> 4	0.875	5.46	0.992	> 20	0.839	2.6
WSU-DLCL2 (B-cell lymphoma, suspension)	0.993	> 4	0.975	> 4	0.774	2.62	0.992	> 20	0.946	> 5.12
WSU-NHL (lymphoid neoplasm, suspension)	0.943	> 4	0.985	> 4	0.849	4.96	0.985	> 20	0.835	2.82
YT (lymphoid neoplasm, suspension)	0.936	> 4	0.991	> 4	0.892	6.93	0.981	> 20	0.863	3.36
no-10 (glioma, adherent)	0.918	> 4	0.913	> 4	0.925	> 8	0.983	> 20	0.951	> 5.12
no-11 (glioma, adherent)	0.982	> 4	0.919	> 4	0.879	> 8	0.981	> 20	0.954	> 5.12

Lines with a small IC50 respond at low doses; where the fit passes the top or lowest dose, that dose stands as a limit. AUC sums up the same curve from the lowest dose to the 256-fold higher top dose; it is 1 without any effect and falls as sensitivity rises. For part of these data: Any top dose called inferred was derived from the fitted curves, not read from the paper. For part of these data: Drugs with an entry number were screened twice under separate entries, and the two screens often disagree.
